Reference: publication PMC4336329 (PLoS ONE, 2015)
Screen size: about 310,000 compounds; about 14,000 (4.5%) showed an effect of 50% or more. Effects have a minus sign here. Some of the results follow.

Biological target: human ether-à-go-go-related gene (hERG) potassium channel (human, UniProt Q12809)
Assay: primary screen, population patch clamp on CHO cells stably expressing hERG
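Further: peak tail current of the secondary pulse compared with the same well before compound.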

human ether-à-go-go-related gene (hERG) potassium channel, sequence (Q12809 whole entry, looked up): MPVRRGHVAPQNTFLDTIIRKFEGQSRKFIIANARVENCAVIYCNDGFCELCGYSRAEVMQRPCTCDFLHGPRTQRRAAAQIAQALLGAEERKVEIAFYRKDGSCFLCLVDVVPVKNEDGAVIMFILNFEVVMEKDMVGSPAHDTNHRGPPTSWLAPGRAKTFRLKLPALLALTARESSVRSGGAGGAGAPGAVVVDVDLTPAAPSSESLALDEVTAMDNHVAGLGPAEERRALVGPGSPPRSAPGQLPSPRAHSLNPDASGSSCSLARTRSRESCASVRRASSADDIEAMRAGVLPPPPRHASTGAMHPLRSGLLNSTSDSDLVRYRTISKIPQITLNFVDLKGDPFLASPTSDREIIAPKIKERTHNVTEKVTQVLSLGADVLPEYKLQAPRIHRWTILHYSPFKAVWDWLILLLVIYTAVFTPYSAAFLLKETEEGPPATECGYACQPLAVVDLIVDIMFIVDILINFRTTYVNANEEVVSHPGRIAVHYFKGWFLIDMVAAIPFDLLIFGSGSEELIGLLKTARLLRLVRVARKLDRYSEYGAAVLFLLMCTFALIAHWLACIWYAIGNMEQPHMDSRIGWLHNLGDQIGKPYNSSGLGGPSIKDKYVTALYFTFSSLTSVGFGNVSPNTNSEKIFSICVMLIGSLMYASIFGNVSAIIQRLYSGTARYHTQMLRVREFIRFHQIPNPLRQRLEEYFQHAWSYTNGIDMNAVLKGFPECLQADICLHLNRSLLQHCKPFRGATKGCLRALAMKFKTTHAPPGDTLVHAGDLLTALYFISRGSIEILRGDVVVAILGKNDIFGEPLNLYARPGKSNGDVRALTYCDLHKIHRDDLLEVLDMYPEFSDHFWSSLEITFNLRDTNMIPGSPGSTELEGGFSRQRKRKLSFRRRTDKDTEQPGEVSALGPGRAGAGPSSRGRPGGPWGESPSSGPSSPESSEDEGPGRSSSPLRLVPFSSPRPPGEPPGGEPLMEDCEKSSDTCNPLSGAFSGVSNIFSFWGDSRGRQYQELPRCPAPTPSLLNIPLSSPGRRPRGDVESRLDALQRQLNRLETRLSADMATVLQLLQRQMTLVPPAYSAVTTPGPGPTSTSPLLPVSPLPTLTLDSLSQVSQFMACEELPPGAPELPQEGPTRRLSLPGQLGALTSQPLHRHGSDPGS

Compound | hERG current change (%, negative = inhibition) at 10uM [%]
COC(=O)c1cn(CC(=O)N2CCCCC2C)c2ccccc12 (centres unmarked) | 4.23
Cc1c(C)n(Cc2ccc(F)cc2)c2ccc(C(=O)NCCCN3CCOCC3)cc12 | -35.7
COc1ccccc1OCCC(=O)OCCN1C(=O)c2ccccc2C1=O | -8.27
CCN(CC)CCN(C(=O)c1cc2ccccc2cc1OC)c1nc2ccc(F)cc2s1.Cl | -11.8
COC(=O)c1c(N)c2ccccc2[nH]c1=O | 9.93
N#C/C(=N\Nc1ccccc1F)c1nc(-c2ccccc2)cs1 | 7.51
COc1ccc(/C=C/C(=O)O/N=C(\N)c2cccnc2)cc1OC | -5.84
COc1ccccc1CNC(=O)C1CCN(Cc2nc(-c3cccc(Cl)c3)oc2C)CC1 | -78
CC(=O)Nc1ccc(S(=O)(=O)Nc2nc(CN3CCOCC3)nc3sc4c(c23)CCCC4)cc1 | -4
CCNc1ccc2c(Cl)cc(=O)oc2c1 | 8.16
O=C(CN1C(=O)CCSc2ccccc21)Nc1cccc(F)c1 | -14.9
Cc1cc(C)n(-c2ncc(-c3ccccc3)nn2)n1 | -36.4
CN(C)CCCN(C(=O)c1cc(-c2cccs2)nc2ccccc12)c1nc2ccc(F)cc2s1.Cl | 5.59
COc1ccccc1-c1cc(C2CC2)nc(N)c1C#N | 4.94
CC1CCCCN1C(=O)c1cc2c(=O)n3ccccc3nc2s1 (centres unmarked) | 8.32
Nc1c(C(=O)OCC2CCCO2)c2nc3ccccc3nc2n1Cc1cccs1 (centres unmarked) | -27.9
O=S(=O)(NC1CCCCC1)c1ccc(F)c2ccccc12 | 0.801
CCOC(=O)NC1C=CS(=O)(=O)C1 (centres unmarked) | 13.8
O=C(Nc1nc(-c2ccc(F)cc2)cs1)c1cccnc1 | 10.1
COCCCNC(NC(=O)c1ccc(Br)cc1)C(Cl)(Cl)Cl (centres unmarked) | -7.58
COC(=O)c1cc(NC2c3ccccc3C(=O)N2Cc2ccco2)cc(C(=O)OC)c1 (centres unmarked) | -1.56
Cc1ccc(-c2n[nH]c(=S)n2/N=C/c2cccs2)cc1 | 24.6

Compound | hERG current change (%, negative = inhibition) at 10uM [%]
COC(=O)CSc1nnc(-c2sc3cc(OC)ccc3c2Cl)n1C | -11.5
CCOc1ccc(-c2cccc(NC(=O)c3ccco3)c2)nn1 | -17.5
O=C(Nc1ccccc1OC(F)F)c1ccc(Br)o1 | -20.9
CCN1C(=O)CSc2ccc(C(=O)NCc3ccccc3)cc21 | 4.58
Cc1cc(N2CCOCC2)cc(C)[n+]1[O-] | -12.6
CC1=C(C)CC(C(=O)Nc2ccc(C(N)=O)cc2)C(C(=O)O)C1 (centres unmarked) | 14.9
COc1ccc(NC(=O)Cn2c(-c3ccccc3)cc(C(C)=O)c2C)c(OC)c1 | -22.6
CCCOc1ccc(/C=C/C(=O)N2CCN(c3ccccn3)CC2)cc1 | -11.6
Cc1ccc(OCCCCn2ccnc2)c([N+](=O)[O-])c1 | -51.5
O=C1OC(Nc2ccc(Cl)cn2)c2ccccc21 (centres unmarked) | -0.645
CC1CC(Nc2ccccc2)=NC1(C)C (centres unmarked) | 21.1
Cc1ccc2oc(C(=O)NCC(c3ccco3)N3CCCC3)c(C)c2c1 (centres unmarked) | -33.8
Cn1cc(CN2CCC(Oc3ccc(C(=O)N4CCCC4)cc3)CC2)cn1 | 9.86
O=C(/C=C/c1ccccc1)NCc1cccnc1 | 18.5
O=S(=O)(Nc1ccc(O)c(CN2CCCCC2)c1)c1ccccc1 | -2.35
COc1cc2nc(N3CCN(C(=O)OCc4ccccc4)[C@H](C(=O)NC(C)(C)C)C3)nc(N)c2cc1OC.O | -13.1
CCCCOc1ccc(-c2n[nH]c(=S)n2Cc2ccccc2)cc1 | 11.7
COc1ccc(N2CCN(C(=O)c3ccc(Br)o3)CC2)cc1 | -17
O=c1oc(-c2ccccc2Cl)nc2ccsc12 | 0.56
COc1cccc(NC(=S)N2CCC(NC(=O)C3CCCCC3)CC2)c1 | 17.6
NCCCN1CCOCC1 | 0.633
O=C(Cc1ccc(Cl)cc1)Oc1cccc2cccnc12 | 3.96
